Laboratory results as given in US20170029494A1, “Antigen Binding Constructs” (Glaxo Group Limited, priority 2011, published 2017).

T1: VEGF165 (Homo sapiens, UniProt P15692)
T1 sequence (P15692 27-191 isoform P15692-4): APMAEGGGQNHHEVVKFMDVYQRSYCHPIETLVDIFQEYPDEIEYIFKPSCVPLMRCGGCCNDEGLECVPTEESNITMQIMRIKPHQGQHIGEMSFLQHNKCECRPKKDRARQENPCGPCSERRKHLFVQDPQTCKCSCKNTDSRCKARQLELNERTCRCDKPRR

B1: DMS30001: C-terminal Fc fusion of K-044-232 dAb (GS(TVAAPSGS)x3 Linker) Fc-dAb; SEQ ID NO:4 & 32 (protein)
chain: [human IgG1 Fc and a few adjoining residues not shown]GSTVAAPSGSTVAAPSGSTVAAPSGSDIQMTQSPSSLSASVGDRVTITCRASQWIGPELSWYQQKPGKAPKLLIYHGSILQSGVPSRFSGSGSGTDFTLTISSLQPEDFATYYCQQYMYYPETFGQGTKVEIKR
modifications: C-terminal Fc fusion of K-044-232 DAB (GS(TVAAPSGS)x3 Linker) Fc-dAb nucleic acid sequence identified using molecular biology techniques.
B2: DMS30002: C-terminal Fc fusion of K-044-236 dAb (GS(TVAAPSGS)x3 Linker) Fc-dAb; SEQ ID NO:5 & 33 (protein)
chain: [human IgG1 Fc and a few adjoining residues not shown]GSTVAAPSGSTVAAPSGSTVAAPSGSDIQMTQSPSSLSASVGDRVTITCRASQWIGPELSWYQQKPGKAPKLLIYHGSILQSGVPSRFSGSGSGTDFTLTISSLQPEDFATYYCQQYMYYPKTFGQGTKVEIKR
modifications: C-terminal Fc fusion of K-044-236 DAB (GS(TVAAPSGS)x3 Linker) Fc-dAb nucleic acid sequence identified using molecular biology techniques.
B3: DMS30011: DT02-K-044-251-AS Linker-Fc-Albumin Domain 3 Linker-DT02-K-044-251 Vk-Vk dAb-Fc-dAb; SEQ ID NO:14 & 42 (protein)
chain: DIQMTQSPSSLSASVGDRVTITCRASQWIGPELKWYQQKPGKAPKLLIYHGSILQSGVPSRFSGSGSGTDFTLTISSLQPEDFATYYCQQYMYYPETFGQGTKVEIKR[human IgG1 Fc and a few adjoining residues not shown]EVDETYVPKEFNAETFTFHADDIQMTQSPSSLSASVGDRVTITCRASQWIGPELKWYQQKPGKAPKLLIYHGSILQSGVPSRFSGSGSGTDFTLTISSLQPEDFATYYCQQYMYYPETFGQGTKVEIKR
modifications: DT02-K-044-251-AS Linker-Fc-Albumin Domain 3 Linker-DT02-K-044-251 Vk-Vk dAb-Fc-dAb nucleic acid sequence identified using molecular biology techniques.
B4: DMS30012: DT02-K-044-251-AAAS Linker-Fc-Albumin Domain 3 Linker-DT02-K-044-251 Vk-Vk dAb-Fc-dAb; SEQ ID NO:15 & 43 (protein)
chain: DIQMTQSPSSLSASVGDRVTITCRASQWIGPELKWYQQKPGKAPKLLIYHGSILQSGVPSRFSGSGSGTDFTLTISSLQPEDFATYYCQQYMYYPETFGQGTKVEIKRAA[human IgG1 Fc and a few adjoining residues not shown]EVDETYVPKEFNAETFTFHADDIQMTQSPSSLSASVGDRVTITCRASQWIGPELKWYQQKPGKAPKLLIYHGSILQSGVPSRFSGSGSGTDFTLTISSLQPEDFATYYCQQYMYYPETFGQGTKVEIKR
modifications: DT02-K-044-251-AAAS Linker-Fc-Albumin Domain 3 Linker-DT02-K-044-251 Vk-Vk d-Fc-dAb nucleic acid sequence identified using molecular biology techniques.

Biological target: T1, VEGF165
Assay: Biacore T100 SPR, Protein A capture, 37° C.
Type: binding
Parameters: made in house; host or cells: HEK293 (transient transfection)
Protocol: (§1) The run was carried out at 37° C., using HBS-EP as the running buffer.
as §1, §1, §1, §1

[1] = Table 5, 1:1 model, VEGF165 64 nM to […]
[2] = Table 7, 1:1 Binding, VEGF165 75, 15, 3, 0.6 nM

Molecule | ka [1] | kd [1] | ka [2] | kd [2]
B1 | 1.62E+07 | 3.63E−05 | – | –
B2 | 1.25E+07 | 3.63E−05 | – | –
B3 | – | – | 1.77E+07 | 8.07E−05
B4 | – | – | 1.61E+07 | 7.39E−05
